Source: PubChem BioAssay AID445 (National Center for Advancing Translational Sciences (NCATS), 2006)
The campaign covered roughly 110,000 compounds. About 40 (0.04%) were called active. This list was built around the results that the source calls inconclusive (neither active nor inactive); the mix of calls is not that of the screen. Calls follow the shape of the dose curve; as a rule, active = well fitted curve in the direction sought with a large enough effect in the signal ratio (not every such curve was filed as active); inconclusive = small, poorly fitted or top-dose-only effect, or a change in a side signal; inactive = flat fitted curve, though single readings scatter; the % refers to the signal ratio. A potency beside an inconclusive call is a rough fit, not a confirmed value.

experiment: IkB Signaling; details: ABC-DLBCL IkBa-CBG/CBR dual luciferase ratio (green luciferase fused to IkBa over red control in OCI-Ly3 lymphoma cells), 4 h; IkBa stabilization activation: at 57.1 µM (top of the series), scaled: untreated 0%, proteasome inhibitor 100% unless noted;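 as to IkBa stabilization activation: 0% = basal untreated cells and 100% = reference inhibitor full response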
In short: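 Curves were fitted separately to fusion (green), unfused (red) and ratio luminescence, then classed by r2, magnitude and activity. Cells: OCI-Ly3, 4 h compound plus doxycycline at 37C; 10 uM MG-132 defined full response.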
Potency is read from the fitted curve at half-maximal effect.

Compound	IkBa stabilization activation	Potency
Nc1ccc2c(C(F)(F)F)cc(=O)oc2c1	inactive: -1.1%	
CCOC(=O)c1c(C)oc2nc(C)nc(NCCc3ccc(C)cc3)c12	inconclusive: 4.11% [signal inhibitor]	
COc1cc(NC(=O)CN2CCCN(Cc3cccc(F)c3)S2(=O)=O)cc(OC)c1	inconclusive: -1.84% [signal inhibitor]	
Cc1cccc(NC(=O)Cn2c(=O)n(Cc3ccco3)c(=N)c3c4c(sc32)COC(C)(C)C4)c1	inconclusive: 4.92% [signal inhibitor]	
CCCc1cc(N2CCN(c3ccccc3F)CC2)n2cnnc2n1	inconclusive: -0.236% [signal inhibitor]	
C=CCNc1ncnc2c1cnn2-c1ccc(Cl)cc1		inconclusive: 20 µM [signal inhibitor, partial curve]
CC1=C(C(=O)N2CCCCC2)C(c2ccc(Cl)cc2)n2c(nc3ccccc32)N1 (stereo not drawn)	inconclusive: 2.73% [signal inhibitor]	
c1ccc(CCN2CCN(c3ncnc4c3cnn4-c3ccccc3)CC2)cc1	inactive: 1.77%	
Cc1ccc(CN2C(=O)c3ccccc3Sc3ccc(C(=O)N4CCOCC4)cc32)cc1	inconclusive: 4.08% [signal inhibitor]	
CCOc1ccc(NC(=O)CSc2oc(-c3ccco3)nc2S(=O)(=O)c2ccccc2)cc1	inconclusive: 2.88% [signal inhibitor]	
Cc1ccc(NC(=O)c2oc3ccc(S(=O)(=O)N(C)C4CCCCC4)cc3c2C)c(C)c1	inconclusive: -0.48% [signal inhibitor]	
O=C(NCCc1ccc(Cl)cc1)c1ccc(Nc2nc3ccccc3n3nnnc23)cc1		inconclusive: 7.94 µM [signal inhibitor, full curve]
O=C(Nc1nc2ccccc2n1CCOc1ccccc1)c1ccco1		inconclusive: 15.8 µM [rising, partial curve]
C=CCn1c(-c2ccccc2)nc2nc3ccccc3nc21	inactive: -3.85%	
Cc1cccc(NC(=O)C(=O)NCCCN2CCOCC2)c1	inconclusive: 10.3% [signal inhibitor]	
COc1ccc(NC(=O)c2nc(SCc3ccc(F)cc3)ncc2Cl)cc1	inconclusive: 0.149% [signal inhibitor]	
Cc1ccccc1Nc1c(-c2ccc(N3CCOCC3)cc2)nc2cccc(C)n12	inconclusive: 3.49% [signal inhibitor]	
CCOc1ccccc1CNC(=O)c1ccc2nc(N3CCC(C)CC3)sc2c1	inconclusive: 1.83% [signal inhibitor]	
C=CCSc1nnc(NC(=O)CSc2nc(CCC)cc(=O)[nH]2)s1	inconclusive: 2.08% [signal inhibitor]	
CCOc1ccc(N(CC(=O)NC(C)(C)C)S(=O)(=O)c2c(C)noc2C)cc1	inactive: -2.35%	
Cc1ccc(-n2ncc3c(NCCc4ccc(S(N)(=O)=O)cc4)ncnc32)cc1	inconclusive: 0.657% [signal inhibitor]	
CCCCOC(=O)CSc1ncnc2sc3c(c12)CCC(C)C3 (stereo not drawn)	inactive: 3.48%	
COc1ccc(OC)c(CNC(=O)COc2cc(=O)n(C)c3ccccc23)c1	inactive: 3.26%	

Compound	IkBa stabilization activation	Potency
O=C(Nc1ccc(NC(=O)C2CC2)cn1)c1ccccc1Cl	inconclusive: 1.73% [signal inhibitor]	
CC1=C(c2ccc(C)cc2)S(=O)(=O)NC1=NCc1ccccc1Cl	inconclusive: 4.08% [signal inhibitor]	
O=c1c(-c2cccs2)nc2cnc(N3CCOCC3)nc2n1Cc1cccs1	inactive: 0.572% [at 11.4 µM, scaled: untreated 0%, proteasome inhibitor 100%]	
CCN(C(=O)Cn1c(=O)oc2cc(S(=O)(=O)N3CCCCCC3)ccc21)c1cccc(C)c1	inconclusive: 0.866% [signal inhibitor]	
O=C(CCS(=O)(=O)c1ccc(Br)s1)Nc1cc(C(F)(F)F)cc(C(F)(F)F)c1	inconclusive: -6.91% [signal inhibitor]	
CCOC(=O)c1c(C)[nH]c(C(=O)NCc2ccccc2OC)c1C	inconclusive: 2.04% [signal inhibitor]	
Cc1cccc(C)c1Nc1c(-c2ccccn2)nc2ccc(Cl)cn12	inconclusive: 1.01% [signal inhibitor]	
Nc1nonc1-c1noc(COc2ccccc2Cl)n1	inactive: -0.019%	
COc1ccc(-c2nc(CSCC(=O)N3CCN(c4ccccc4F)CC3)c(C)o2)cc1	inconclusive: 5% [signal inhibitor]	
CC(=O)N1CCN(c2ccc(Nc3nc(C)nc4c3oc3ccccc34)cc2)CC1	inconclusive: -4.5% [signal inhibitor]	
COc1ccccc1-n1cnnc1SCC(=O)N1CCN(S(=O)(=O)c2ccccc2)CC1		inconclusive: 0.398 µM [signal inhibitor, full curve]
Cn1cc(S(=O)(=O)N2CCCCCC2)cc1C(=O)NCc1ccc(F)cc1	inconclusive: 2.08% [signal inhibitor]	
Cc1cnc(NC(=O)CSc2nnc(COc3c(C)cccc3C)o2)s1	inactive: 4.75%	
Cc1cc(-c2ccccc2)n2nc(-c3cccc(Br)c3)cc2n1	inconclusive: 1.43% [signal inhibitor]	
CC1CCN(C(=O)CN2c3ccc(C(C)C)cc3-c3ccccc3S2(=O)=O)CC1	inconclusive: -0.556% [signal inhibitor]	
Cc1ccc(-c2c(C(=O)NCc3ccc(F)cc3)oc(=O)c3ccccc23)cc1	inconclusive: 2.42% [signal inhibitor]	
CC(=O)c1cccc(NC(=O)c2oc(=O)c3ccccc3c2-c2ccccc2)c1	inconclusive: 4.19% [signal inhibitor]	
N#Cc1ccc(CN2CCC3(CC2)CCN(C(=O)c2cc(C(F)(F)F)cc(C(F)(F)F)c2)CC3)cc1	inactive: 12.7% [at 11.4 µM, scaled: untreated 0%, proteasome inhibitor 100%]	
N#Cc1ccccc1Sc1ccccc1C(=O)OCc1nnc(-c2ccccc2)o1	inconclusive: 6.02% [signal inhibitor]	
COc1ccc(CCCc2nnc(SCC(=O)Nc3ccc(F)cc3)o2)cc1C	inconclusive: 7.12% [signal inhibitor]	
Cc1ccc2c(c1)N(CCC(=O)NCCCOC(C)C)C(=O)C(C)O2 (stereo not drawn)	inactive: -2.46%	
Cc1ccc(CNC(=O)CCCN2C(=O)CCn3nc(-c4cn(C)c5ccccc45)cc32)cc1	inactive: 0.332%	
CS(=O)(=O)N(CC(=O)NCCSCc1ccccc1)c1cc(C(F)(F)F)ccc1Cl	inconclusive: 3.89% [signal inhibitor]	

Compound	IkBa stabilization activation	Potency
O=C(Cn1cnc2onc(-c3ccc(F)cc3)c2c1=O)Nc1cccc(C(F)(F)F)c1	inconclusive: -0.203% [signal inhibitor]	
CCOC(=O)c1nnn(CC(=O)Nc2cc(C)cc(C)c2)c1C(=O)OCC	inconclusive: 5% [signal inhibitor]	
CCOC(=O)c1ccc(NC(=O)c2nc(SC(C)C)ncc2Cl)cc1	inconclusive: -0.127% [signal inhibitor]	
C=CCn1c(SCC(O)Cn2c3ccccc3c3ccccc32)nnc1-c1ccco1 (stereo not drawn)	inconclusive: -0.508% [signal inhibitor]	
CCc1ccc(NC(=O)N2c3ccccc3Sc3ccccc32)cc1	inconclusive: 2.55% [signal inhibitor]	
CCN(Cc1ccccc1)S(=O)(=O)c1ccc2c(c1)CCCN2C(C)=O	inconclusive: 1.71% [signal inhibitor]	
Cc1cccn2c(=O)c3cc(C(=O)NC(C)C)c(=N)n(Cc4ccncc4)c3nc12	inactive: -1.45%	
CCC(c1nnnn1Cc1ccc2c(c1)OCO2)N1CCN(c2ccc(F)cc2)CC1 (stereo not drawn)	inconclusive: 3.79% [signal inhibitor]	
C#C[C@]1(O)CC[C@H]2[C@H]3CCC4=Cc5oncc5C[C@]4(C)[C@@H]3CC[C@]21C	inconclusive: 1.94% [signal inhibitor]	
COCCNc1cc(C)nc2c3c(C)cc(C)nc3nn12	inactive: -0.253%	
Cc1ccc(Cn2nnc3c(=O)[nH]c(C4CCN(S(=O)(=O)c5ccc(F)cc5)CC4)nc32)cc1	inconclusive: 1.45% [signal inhibitor]	
O=C(NCCc1csc(-c2cccc(F)c2)n1)c1ccccc1C(F)(F)F	inconclusive: 2.81% [signal inhibitor]	
Cc1ccc(OCC(O)Cn2c(=N)n(CCN3CCOCC3)c3ccccc32)cc1 (stereo not drawn)	inactive: -0.597%	
CCc1nn(-c2ccccc2)c2nc(-c3ccc(O)cc3)c3cc(OC)c(OC)cc3c12	inconclusive: 4.22% [signal inhibitor]	
Cc1cccc(-c2nc(CN3CCCC(C(=O)NCc4ccc(Cl)cc4)C3)c(C)o2)c1 (stereo not drawn)	inconclusive: -2.12% [signal inhibitor]	
O=C(NCc1ccc(F)cc1)C1CCCCN1S(=O)(=O)c1ccc(F)cc1 (stereo not drawn)	inconclusive: 0.107% [signal inhibitor]	
COc1cccc2[nH]c(-c3ccccn3)nc12	inactive: 2.23% [at 11.4 µM, scaled: untreated 0%, proteasome inhibitor 100%]	
Cc1cc(C)cc(NC(=O)c2oc3ccc4c(c3c2C)C(=O)CC(C)(C)O4)c1	inconclusive: 1.39% [signal inhibitor]	
N=c1n(CCN2CCCCC2)c2ccccc2n1CC(O)COc1ccccc1 (stereo not drawn)	inconclusive: 2.39% [signal inhibitor]	
Cc1cc(C(=O)CSc2nc3ccccc3[nH]2)c(C)n1C	inactive: 0.243%	
Cc1ccc(C)c(N2CCN(C(=O)c3ccc(Nc4nc5ccccc5n5nnnc45)cc3)CC2)c1		inconclusive: 15.8 µM [signal inhibitor, partial curve]
CCOC(=O)c1cc(C)n(CC2CCC(C(=O)Nc3ccc(C)cc3)CC2)c1C (stereo not drawn)	inconclusive: -2.98% [signal inhibitor]	
